Screen size: about 44,000 compounds; about 340 (0.77%) were called active. Inconclusive results (about 5%) are left out. The call rests on the fitted dose curve; in most records, active means well fitted inhibition curve with a large enough effect; inconclusive means small, poorly fitted or top-dose-only effect; inactive means flat fitted curve, though single readings scatter. The list shows a part of the results.
Assay: Acumen qHTS Assay for Inhibitors of the mTORC1 Signaling Pathway in MEF (Tsc2-/-, p53-/-) Cells: Sytravon;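 further: plate controls were DMSO for no effect and rapamycin for full effect; nearly all actives have a fitted effect of over 50% in size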
Conditions: phospho-rpS6 immunofluorescence/PI, 24 h; series mostly up to 38.3 µM; activity change, negative = inhibition: at the top concentration
How it was run: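 Read-out: phospho-S6 Alexa-488 intensity over PI intensity per well, scored as % active cells using thresholds from rapamycin (7.5 nM) and DMSO controls. Tsc2-/-, p53-/- MEFs exposed to compound for 24 h; PI cell count recorded as viability.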

Activity change, negative = inhibition, inactive:
COc1ccc(-c2noc(CN3CCN(c4ccccc4OC)CC3)n2)cc1OC -6.35%
COc1ccc(OC)c(-c2noc(CSc3nnc(Cc4ccccc4)n3-c3cccc(C)c3)n2)c1 -0.618%
Cn1cc(S(=O)(=O)c2ccccc2)c(=O)c2cc(F)c(N3CCCCC3)cc21 -4.82%
Cc1noc2nc(C(=O)O)nc(N3CCCCC3)c12 -2.05%
CCc1nnc(SCC(=O)Nc2cc(Cl)c(OC)cc2OC)c2cc3oc(C)cc3n12 3.26%
COc1cccc(N2CC(NC(=O)COc3ccc4ccccc4c3)CC2=O)c1 (stereo unspecified) -1.56%
CC(=O)c1ccc(NC(=O)CCn2nc(C)c(S(=O)(=O)N3CCC(C)CC3)c2C)cc1 4.49%
CC1CCC(NC(=O)Cn2ncc3c4ccccc4n(Cc4ccc(Cl)cc4)c3c2=O)CC1 (stereo unspecified) 1.29%
CC(C)c1cnc2c(c1SCc1cccc(C(F)(F)F)c1)c(=O)n(C)c(=O)n2C 0.424%
Cc1ccc(-n2c(=O)c3ccc(C(=O)NCc4ccco4)cc3n(Cc3cccc(Cl)c3)c2=O)cc1 -6.41%
Cc1cccc(-n2c3nc(=O)n(C)c(=O)c-3cc3c(Cl)cccc32)c1C -0.406%
CCc1nc(SCC(=O)Nc2ccc(NC(C)=O)cc2)n[nH]1 -3.85%
CC(C)CCNC(=O)CSCc1cnn(-c2ccccc2)c1-n1cccc1 -2.76%
COC(=O)c1ccccc1NC(=O)Cc1noc2ccc(C)cc12 -4.64%
COc1ccc(Br)cc1CNC(=O)CN1CCSc2ccccc21 -9.72%
CCc1ccc(NC(=O)CC2C(=O)N(c3ccccc3)C(=O)N2C(C)C)cc1 (stereo unspecified) -2.24%
COc1ccc(NC(=O)Cn2c(=O)n(Cc3nc(-c4ccccc4)no3)c(=O)c3cc4c(cc32)OCO4)cc1Cl -0.31%
O=C(Nc1ccc(Cl)c(Cl)c1)N1CCC(c2ccccc2)C1 (stereo unspecified) -11.8%
COc1ccc2c(c1)-c1nc(NC(=O)c3ccc(Cl)cc3)sc1CC2 -24.5%
COc1ccc(CNc2ncnc3c2nnn3C)cc1 -0.657%
Cc1nn(CC(=O)NCc2ccc(OC(C)C)cc2)c(=O)c2c(C)n(-c3ccc(Cl)cc3)nc12 10.2%
COc1ccc(CN2C(=O)C(NC(=O)c3ccccc3C)(C(F)(F)F)N=C2c2ccccc2)cc1 (stereo unspecified) 5.98%
Cc1cccc(NC(=O)Cn2cc(C(=O)c3ccco3)c3ccccc32)c1C -6.4%
CCc1ccccc1NC(=O)Cn1nnc(C(=O)Nc2ccc(C)c(F)c2)c1N -25.7%
Cc1ccc2oc(-c3ccc(Cl)c(NC(=O)c4ccc(-c5ccccc5[N+](=O)[O-])o4)c3)nc2c1 -0.24%
CSc1ccc(CCNC(=O)Cn2ncc3c(=O)oc4ccc(C)cc4c32)cc1 1.3%
CCCCCOc1ccc(C2c3c(oc4ccccc4c3=O)C(=O)N2c2nc(C)c(C)s2)cc1OCC (stereo unspecified) -0.343%
COc1ccccc1CCNc1ncnc2c1nnn2C -5.82%
Cn1nc(C(=O)N2CCN(c3ccccc3)CC2)c2c1-c1ccccc1S(=O)(=O)C2 8.95%
COc1ccc(C)cc1NC(=O)c1ccc2c(Cl)c3c(nc2c1)CCC3 -4.85%
COc1ccc(S(=O)(=O)c2c(SC)nn(Cc3ccccc3C)c2NC(C)=O)cc1 2.62%
O=C(Nc1ccc(O)cc1)c1cccc(S(=O)(=O)N2CCOCC2)c1 -1.75%
O=C(CSc1nc2c([nH]c3ccccc32)c(=O)n1-c1ccccc1)N1CCCC1 -9.89%
CCOC(=O)c1cccc(Nc2ccc3cc(S(=O)(=O)N4CCCCC4)ccc3n2)c1 -7.8%
O=c1c2oc3ccccc3c2n(Cc2ccccc2)c(=O)n1Cc1ccc2c(c1)OCO2 -3.69%
Cc1ccc(OCC(=O)Nc2ccc3nn(-c4ccc(Cl)cc4)nc3c2)cc1 10.3%
CCOC(=O)C1CCCN(C(=O)c2ccc3c(c2)N(Cc2ccccc2)C(=O)c2ccccc2S3=O)C1 (stereo unspecified) 1.55%
Cc1ccc(C)c(NC(=O)Cn2c(=O)n(CCC(=O)NCc3ccc4c(c3)OCO4)c(=O)c3ccccc32)c1 -2.28%
CCCN1CCCc2cc(CN(CCCN3CCOCC3)C(=O)Nc3ccc(CC)cc3)ccc21 -13.9%
COc1cc(C2CC(=O)Nc3c2c(=O)[nH]c2ncnn32)ccc1O (stereo unspecified) 2.31%
CCCCc1nn2c(=O)cc(COC(=O)c3ccccc3NC(=O)c3ccccc3OC)nc2s1 13.9%
COc1cccc(NS(=O)(=O)c2ccc3[nH]cc(C(=O)N(C)C4CCCCC4)c(=O)c3c2)c1 2.05%
CCCC(=O)N1c2nc(C(C)C)nn2C2(CCCCC2)[C@@H]2CCCC[C@@H]21 -6.84%
COc1ccc2oc(=O)cc(CN3CCN(c4ccccc4F)CC3)c2c1 1.66%
COc1cccc(CNC(=O)c2ccc(NC(=O)N3CCCCc4ccccc43)cc2)c1 -5.97%
O=C(Nc1cccc(Cl)c1)c1csnn1 -1.61%
Cc1ccc(-c2nc(SCC(=O)NCC3CCCO3)c(-c3ccc(C)cc3)[nH]2)cc1 (stereo unspecified) 1.03%
NC(=O)c1cc(S(=O)(=O)NCC2CCC(C(=O)Nc3ccc(Cl)cc3)CC2)cs1 (stereo unspecified) 0%
Cc1nnc(N2CCN(C(=O)Nc3cccc(C(F)(F)F)c3)CC2)c2nn(-c3ccccc3)c(C)c12 11.2%
Cc1oc2ncn(C)c(=O)c2c1C(=O)Nc1ccc(F)cc1 -7.52%
Cc1cc(OCC(=O)NC(Cc2c[nH]c3ccccc23)C(=O)O)ccc1Cl (stereo unspecified) -12.9%
Cc1cc(N2CCN(c3ccc(F)cc3)CC2)n2nc(-c3ccc(Cl)cc3)nc2n1 1.95%
CCc1nn(CC(=O)NCCc2ccc(Cl)cc2)c(=O)c2cc3ccccc3n12 1.08%
CCOC(=O)c1[nH]c(C)c(CCC(=O)Nc2ccccc2C(=O)OC)c1C -15.1%
CCOc1ccc2nc(N(Cc3cccnc3)C(=O)C3CCCCC3)sc2c1 -1.19%
Cc1ccc(-c2nnc(Nc3ccccc3)c3ccccc23)cc1S(=O)(=O)N1CCOCC1 8.37%
Cc1ccc(C2CCN(C(=O)Nc3ccc(Cl)c(Cl)c3)C2)cc1 (stereo unspecified) -7.58%
Cc1cccc(N2CCN(C(=O)c3oc(=O)c4ccccc4c3-c3ccccc3)CC2C)c1 (stereo unspecified) -1.32%
COc1ccc(Cn2c(CCC(=O)Nc3ccc(C)cc3C)nc3cccnc32)cc1 -4.07%
Cc1oc2ccc(O)c(CN3CCN(C)CC3)c2c1C(=O)Nc1ccccc1 -1.8%
COc1cccc(CNC(=O)c2cccc(-n3c(C)nc4cccnc43)c2C)c1 0.313%
Cc1cccc(CSc2nc(=O)c3c(n2C)NC(=O)CC3c2cc(F)cc(F)c2)c1 (stereo unspecified) -4.98%
COc1ccc(-c2[nH]ncc2C(=O)NCc2cccc(OC)c2)cc1 1.15%
Cc1ccsc1CN(C(=O)COc1ccc(Cl)cc1)C1CCS(=O)(=O)C1 (stereo unspecified) 2.55%
CCOc1cccc2cc(-c3cn4c(n3)sc3ccccc34)c(=O)oc12 -1.52%
Cc1ccc(CNC(=O)CSc2nnc(C)c3c(C)n(-c4ccccc4)nc23)cc1 -13.2%
CC1CCN(S(=O)(=O)c2ccc3c(ccc(=O)n3CC(=O)NCc3ccccc3Cl)c2)CC1 0.4%
COc1ccc(NC(=O)CSC2=Nc3ccccc3N=C(c3ccc(F)cc3)C2)cc1OC -0.0481%
CCN(C(=O)CCNC(=O)Cn1cnc2ccccc2c1=O)c1cc(OC)ccc1OC 4.49%
Cc1ccc2c(c1)c1c(c(=O)n(-c3ccccc3C)c(=O)n1CC(=O)c1ccc(Cl)cc1)n2C 0.441%
O=S(=O)(c1ccc(Cl)cc1)c1nnn2c1nc(NC1CCCCC1)c1sccc12 -3.13%
CCC1CN(C(=O)N2CCC(C(=O)NCc3cc(OC)c(OC)c(OC)c3)CC2)c2ccccc2O1 (stereo unspecified) 5.08%
CN(C)c1ccc(NC(=O)Cn2nnc3sc4c(c3c2=O)CCC(C(C)(C)C)C4)cc1 (stereo unspecified) 2.07%
CCSc1ncc(Cl)c(C(=O)Nc2nc3ccc(Cl)cc3s2)n1 -3.57%
CN(C)c1ccc(CNC(=O)CN2C(=O)CSc3ccc(S(=O)(=O)N4CCCC4)cc32)cc1 0.377%
Cc1cccc(NC(=O)c2oc3ccccc3c2NC(=O)c2cc(=O)c3ccc(C)cc3o2)c1 4.21%
Cc1cc(NC(=O)CCc2nc3cccnc3n2Cc2cccs2)ccc1Br -13.3%
Cc1ccc(-n2c(=O)c3c(cnn3C)n(Cc3ccc(Cl)cc3)c2=O)cc1 -1.71%
CCc1ccc(NC(=O)N(Cc2c[nH]c3ccccc23)C2CCCCC2)cc1 -0.696%
CCOc1ccc(CNC(=O)c2ccc3[nH]c(C)c(C)c3c2)cc1OC -0.393%
CCOc1cc(C(=O)Nc2ccc(NC(=O)c3cc4ccccc4o3)c(OC)c2)cc(OCC)c1OCC 21.6%
Cc1ccc(NC(=O)Nc2c[nH]c(=O)[nH]c2=O)c(Cl)c1 3.97%
CCOc1ccc2nc(N3CCCC(C(=O)Nc4cc(C)ccc4C)C3)sc2c1 (stereo unspecified) -5.91%
Cc1ccc(NS(=O)(=O)c2cc(-c3cc(C)no3)ccc2C)c(Cl)c1 -1.01%
CCc1ccccc1NC(=O)CSc1nnc(-c2ccc(OC)cc2)s1 -6.99%
CC(=O)Nc1ccc(NC(=O)C2CCN(S(=O)(=O)c3ccc4c(c3)CCCC(=O)N4)CC2)cc1 0.931%
O=c1c2ccccc2n(Cc2c(F)cccc2Cl)c(=O)n1CCc1ccccc1 -19.2%
Cc1cc2c(cc3c(SCc4ccc(Cl)cc4)nncn32)o1 1.07%
COc1ccc(C)cc1NC(=O)c1cnc2ccc(C)cn2c1=O -3.74%
COCCNC(=O)CCCn1c(SCC(=O)c2ccc(Br)cc2)nc2c(sc3ccccc32)c1=O -3.89%
Cc1ccn2c(=O)cc(COc3ccc(NC(=O)COc4ccc(C)c(C)c4)cc3)nc2c1 3.35%
CCOc1cc(C2c3c(oc4ccccc4c3=O)C(=O)N2Cc2ccc(OC)cc2)ccc1O (stereo unspecified) -10.3%
Cc1cccc(Nc2c(-c3ccsc3)nc3nc(C)cc(C)n23)c1 2.87%
O=C(CCCCn1c(=O)c2ccccc2n(Cc2cccc(F)c2)c1=O)NCc1ccc2c(c1)OCO2 -29.5%
O=C(O)c1ccc2nc(-c3cc4cc(Cl)ccc4oc3=O)[nH]c2c1 -4.34%
Cc1ccc(C(=O)c2oc3ccccc3c2NC(=O)Cc2coc3ccc(C)cc23)cc1 3.45%

Reference: PubChem BioAssay AID493208 (National Center for Advancing Translational Sciences (NCATS), 2011)
